Some test systems named below: A498 renal; A549 NSCLC; CAKI-1 renal; CCRF-CEM leukemia; COLO 205 colon; DLD-1 colon; DMS 273 small cell lung; EKVX NSCLC; HCT-116 colon; HCT-15 colon; HL-60(TB) leukemia; HOP-18 NSCLC; HOP-62 NSCLC; HOP-92 NSCLC; HS 578T breast; HT29 colon; IGROV1 ovarian; K-562 leukemia; KM12 colon; KM20L2 colon; LOX IMVI melanoma; MALME-3M melanoma; MCF7 breast; MDA-N; NCI-H226 lung; NCI-H23 lung; NCI-H460 lung; NCI-H522 lung; OVCAR-3 ovarian; OVCAR-4 ovarian; OVCAR-5 ovarian; OVCAR-8 ovarian; P388/ADR leukemia; RPMI-8226 leukemia; SF-268 CNS; SF-539 CNS; SK-MEL-2 melanoma; SK-MEL-28 melanoma; SK-MEL-5 melanoma; SK-OV-3 ovarian; SN12C renal; SN12K1 renal; SNB-19 CNS; SNB-75 CNS; SNB-78 CNS; SR leukemia; SW-620 colon; T-47D breast; U251 CNS; UACC-257 melanoma; UACC-62 melanoma; UO-31 renal; XF 498 CNS; HCC-2998 colon; MOLT-4 leukemia; RXF 393 renal.

Common to all, as to test: NCI tumour cell line growth inhibition, 48 h

Molecules are shown by their SMILES.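 Each compound was tested at five concentrations against cells in 96-well plates for 48 hours. The concentration for 50% growth inhibition is given as GI50.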 Some entries of the source have several records that differ or are many. The list is limited to them. The source may hold further records. For some assays here: A record mostly stands for its own series of concentrations, which the source does not state; some values may only mark the edge of a range.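 TGI denotes the concentration required for complete inhibition of growth.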 For some assays here: Values given together repeat one measurement (runs, samples, wells, individuals or studies). Marks in square brackets tell the records apart. Letters count within one entry. Where a SMILES comes first, the peptide text is derived from it. [ ]: non-standard residue; d: D form. The star is where a group is joined. ξ: configuration not given here. X3 = COC1=CC(=O)N(C(=O)C(O*)C(C)C)C1Cc1ccccc1; ξNMe2Val = CC(C)C(C(=O)*)N(C)C; NMeV = CN[CH](C(=O)O)C(C)C

With `CC[C@@H](C)[C@@H]1NC(=O)C(NC(=O)C(CC(C)C)N(C)C(=O)C2CCCN2C(=O)C(C)O)C(C)OC(=O)C(Cc2ccc(OC)cc2)N(C)C(=O)C2CCCN2C(=O)C(CC(C)C)NC(=O)C(C)C(=O)C(C(C)C)OC(=O)C[C@H]1O` (some centres not stated), the TGI with A498 renal is 5.45 nM, 17.9 nM, 97.3 nM; in the assay with A549 NSCLC, 0.5, 11.4, 25.6, 187 nM; in the assay on CAKI-1 renal, 0.5, 74.8, 36.1, 47.9 nM; in the assay on CCRF-CEM leukemia, 0.0542 nM, < 26.1 nM, 89.2 nM; with COLO 205 colon, 0.000525 nM, 3.04 nM [1 test] and 12.2 nM [mean of 10 tests] and 0.568 nM [mean of 3 tests] and 214 nM [mean of 5 tests]; in the assay on DLD-1 colon, 0.5, 0.562, 59.7, 315 nM. Besides, the TGI in the assay on DMS 273 small cell lung is 0.5 nM [1 test] and 39.3 nM [mean of 5 tests]; with EKVX NSCLC, 0.5, 0.256, 8.27, 16.4, 46.6 nM; in the assay on HCT-116 colon it was 0.5 nM, 0.0115 nM, 3.28 nM [1 test] and 23 nM [mean of 4 tests] and 36.2 nM [mean of 9 tests]; in the assay on HCT-15 colon, 0.5 nM, 51.1 nM, 302 nM, 1.24 µM; in the assay with HL-60(TB) leukemia it was 0.0776, 2.25, 24.3, 257 nM; with HOP-18 NSCLC, 0.874 nM [mean of 4 tests] and 60.3 nM [mean of 5 tests] and 10.9 nM [mean of 9 tests]. Also, the TGI is 1.59, 4.61, 34.2, 15.6 nM in the assay on HOP-62 NSCLC; 0.5, 7.45, 21.5, 5.77, 40.2 nM in the assay on HOP-92 NSCLC; 3.41 nM [1 test] and 35.9 nM [mean of 4 tests] in the assay with HS 578T breast; 0.5 nM, 17.9 nM, 36.6 nM with HT29 colon; 4.05, 9.82, 54.8, 210 nM in the assay with IGROV1 ovarian; 0.356, 16.8, 30.5, 674 nM in the assay with K-562 leukemia. The TGI in the assay with KM12 colon is 0.5, 0.826, 5.24, 30.8, 45.1 nM; in the assay on KM20L2 colon it was 0.5 nM, 24.7 nM, 203 nM; in the assay with LOX IMVI melanoma, 0.5, 5.46, 21.7, 113 nM; in the assay on MALME-3M melanoma it was 0.5, 5.69, 5.39, 9.95, 42 nM; in the assay on MCF7 breast it was 0.5 nM, 0.101 nM, 22 nM; with MDA-N, 6.68 nM and 87.6 nM. Besides, the TGI was 6.51 nM, 13.2 nM, 78 nM in the assay with NCI-H226 lung; 0.5, 11.8, 50.5, 32.2 nM with NCI-H23 lung; 0.5, 0.0105, 61.2, 14.4, 161 nM in the assay on NCI-H460 lung; 0.5 nM, 0.153 nM, 7.51 nM [1 test] and 12.4 nM [mean of 11 tests] and 0.483 nM, < 12.6 nM [mean of 5 tests] with NCI-H522 lung; 0.5, 1.16, 83.4, 40.9, 16.9 nM with OVCAR-3 ovarian; 0.5, 0.722, 15.3, 37.1 nM in the assay with OVCAR-4 ovarian. For the same molecule, the TGI in the assay with OVCAR-5 ovarian is 1.67 nM, 17 nM [1 test] and 414 nM [mean of 5 tests] and 140 nM [mean of 8 tests]; in the assay with OVCAR-8 ovarian, 22.2 nM, 16 nM, 721 nM; in the assay on P388/ADR leukemia, 0.5 nM, 702 nM, 1.61 µM; in the assay on RPMI-8226 leukemia, 0.0169, 34.3, 70.7, 296 nM; in the assay on SF-268 CNS it was 5.96, 16.8, 40, 51.9 nM; in the assay with SF-539 CNS, 0.206, 5.69, 10.1, 25.4 nM. Further, the TGI in the assay on SK-MEL-2 melanoma is 0.5, 0.381, 5.82, 14.3, 34.2 nM; in the assay on SK-MEL-28 melanoma, 6.73 nM [1 test] and 13.3 nM [mean of 11 tests] and 0.308 nM [mean of 4 tests] and 30.1 nM [mean of 5 tests]; in the assay with SK-MEL-5 melanoma, 0.5, 0.187, 0.584, 21.3, 11.6 nM; in the assay on SK-OV-3 ovarian it was 10.3 nM [1 test] and 28.9 nM [mean of 11 tests] and 213 nM [mean of 5 tests]; in the assay on SN12C renal, 12.1 nM, 18.8 nM, 415 nM; in the assay on SN12K1 renal, 0.5 nM, 5.18 nM, 176 nM. Further, the TGI in the assay on SNB-19 CNS is 0.5, 0.102, 9.84, 13.3, 25.3 nM; in the assay with SNB-75 CNS, 0.001 nM, 0.0662 nM [1 test] and 0.0794 nM [mean of 2 tests] and 0.687 nM [mean of 4 tests] and 18.7 nM [mean of 5 tests]; in the assay with SNB-78 CNS, 0.912 nM, 7.08 nM, 22.1 nM; in the assay with SR leukemia it was 2.11 nM, 7.18 nM, 38.7 µM; in the assay with SW-620 colon it was 0.5, 6.65, 271, 67.3 nM; in the assay with T-47D breast, 8.27 nM and 453 nM. The TGI in the assay on U251 CNS was 0.5 nM, 0.0128 nM, 4.04 nM [1 test] and 15.8 nM [mean of 11 tests] and 16 nM [mean of 5 tests]; with UACC-257 melanoma, 0.5, 14.1, 21.9, 103 nM; in the assay with UACC-62 melanoma it was 0.5 nM, 0.252 nM, 5.55 nM, 9.7 nM, < 11.9 nM; with UO-31 renal, 24.1 nM, 172 nM, 888 nM; in the assay on XF 498 CNS, 0.00974 nM, 6.56 nM, < 20.9 nM. In addition, in the assay with HS 578T breast, the GI50 was 0.423 nM [1 test] and 12.7 nM [mean of 4 tests].
As to `C=C1CC2CC[C@@]34C[C@@H]5O[C@@H]6C(O[C@H]7CC[C@H](CC(=O)OC8[C@@H](C)C9OC%10C[C@]%11(C[C@@H]%12O[C@@]%13(C[C@@H](C)[C@@H]%12O%11)C[C@H](C)[C@@H]%11OC%12CC(C(O)CO)OC%12C[C@@H]%11O%13)OC%10CC9O[C@H]8C[C@H]8O[C@@H](CC[C@@H]1O2)C[C@@H](C)C8=C)O[C@@H]7[C@@H]6O3)C5O4` (some centres not stated), the TGI is 7.91 nM and > 1.48 µM in the assay with CCRF-CEM leukemia; 5 nM and < 0.148 nM with COLO 205 colon; 2.95 nM and > 1.48 µM with HCT-15 colon; 1.43 nM and > 1.48 µM in the assay with HL-60(TB) leukemia; 5.37 nM and > 1.48 µM in the assay on HOP-62 NSCLC; 9.57 nM and 330 nM in the assay with KM12 colon. The TGI is 1.77 nM and < 0.148 nM in the assay with KM20L2 colon; 6.06 nM and 0.447 nM with NCI-H226 lung; 7.92 nM and > 1.48 µM in the assay with SK-OV-3 ovarian; 4.98 nM and < 0.148 nM in the assay with XF 498 CNS.
For `Cn1cc(-c2cc3c(Nc4ccc(CC(=O)Nc5cc(C(C)(C)C)on5)cc4)ncnc3[nH]2)cn1`, the TGI in the assay with CCRF-CEM leukemia was 14.1 µM [sample A, mean of 2 tests] and 1.12 µM [sample B, mean of 2 tests].
Turning to `COC1=CC(=O)N(C(=O)C(OC(=O)C2CCCN2C(=O)C2CCCN2C(=O)C(C(C)C)N(C)C(=O)C(NC(=O)C(C(C)C)N(C)C)C(C)C)C(C)C)C1Cc1ccccc1` (configuration not stated) (ξNMe2Val-V[NMeV]PP-X3; configuration not given here), the TGI was 5.11 nM and 208 nM in the assay on HCC-2998 colon; 6.8 nM and > 4 µM with HOP-92 NSCLC; 7.45 nM and < 0.4 nM in the assay with KM20L2 colon; 8.35 nM and 461 nM with MOLT-4 leukemia; 9.27 nM and 229 nM in the assay with OVCAR-8 ovarian; 6.57 nM and > 4 µM in the assay with RXF 393 renal. Also, the TGI in the assay with SK-MEL-2 melanoma is 9.74 nM and > 4 µM; in the assay with SK-MEL-5 melanoma, 7.09 nM and 497 nM; in the assay with SK-OV-3 ovarian it was 9.01 nM and 1.76 µM; with SN12C renal, 9.41 nM and > 4 µM; in the assay on SNB-75 CNS, 8.6 nM and > 4 µM; in the assay with XF 498 CNS, 7.85 nM and < 0.4 nM.

The values are drawn from PubChem BioAssay (NCI).
